The record followed here is patent publication US20060281090A1 (University of Washington, published 2006).

This assay has as its target T1, bovine serum albumin (bovine, UniProt P02769).
T1 construct: Control protein in the cross-linking assay with FIX; also called BSA
The experiment in a line: BS3 protein cross-linking, Western blot with anti-FIX rabbit polyclonal antibodies.

B1: recombinant human coagulation factor IX (enzyme)
chain: not shown
notes: also called FIX; human FIX
For the molecule B1, the binding result is reported as “no binding (tested: 5, 10, or 20 µg BSA with 10 µg FIX)”.
